Data taken from US6417197B1, “Acylated n-hydroxy methyl thalidomide prodrugs with immunomodulator action” (Gruenenthal GmbH, priority 1996, dated 2002).

Procedure: The solubility in water was determined by UV spectroscopy at 300 nm and 25° C.

Substance: [3-(1,3-dihydro-1,3-dioxo-2H-isoindol-2-yl)-2,6-dioxo-piperidin-1-yl]-methoxycarbonylpropionic acid [Compound 9]
- solubility in water: 16.7 mg/mL
- solubility in water, corresponding thalidomide amount: 11.1 mg thalidomide/ml
